Measurements as given in publication PMC12820563.
The list shows a part of the results. The list includes weakly bound sequences.

Biological target: T1, MBP-FoxP3dN (UniProt Q99JB6)
T1 sequence: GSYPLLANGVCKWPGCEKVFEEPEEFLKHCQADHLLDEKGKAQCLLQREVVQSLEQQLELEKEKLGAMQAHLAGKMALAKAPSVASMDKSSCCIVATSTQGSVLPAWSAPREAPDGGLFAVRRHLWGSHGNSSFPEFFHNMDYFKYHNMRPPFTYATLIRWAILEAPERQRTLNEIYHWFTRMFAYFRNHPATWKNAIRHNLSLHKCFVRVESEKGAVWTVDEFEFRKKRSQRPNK
Assay: PD-seq (MBP pull-down with sequencing)
Details: 20 mM Tris-HCl pH 7.5, 100 mM NaCl, 1.5 mM MgCl2, 0.4 uM protein, 0.1 uM dsDNA library, 30 min, room temperature, amylose pull-down; high values mean tight binding; double strand, one strand shown

Sequence	binding signal (RPM ratio (pull-down/input))
GATGATTGTTCTCCCAGCTGATGAATTTAGTGAATCGAGTAAACAAATTTTCCTAATCTTTCTGTTCAAGCGCCATCTAC	0.42
GATGATTGTTCTCCCAGCTGATGAATTCGGCTTATCGAGTAAACAAATTTTCCTAATCTTTCTGTTCAAGCGCCATCTAC	1.47
GATGATTGTTCTCCCAGCTGATGAATTGTGGTGTTCGAGTAAACAAATTTTCCTAATCTTTCTGTTCAAGCGCCATCTAC	2.27
GATGATTGTTCTCCCAGCTGATGAATTGATCCAATCGAGTAAACAAATTTTCCTAATCTTTCTGTTCAAGCGCCATCTAC	0.367
GATGATTGTTCTCCCAGCTGATGAATTGGGTCGGTCGAGTAAACAAATTTTCCTAATCTTTCTGTTCAAGCGCCATCTAC	0.216
GATGATTGTTCTCCCAGCTGATGAATTCGTGATTTCGAGTAAACAAATTTTCCTAATCTTTCTGTTCAAGCGCCATCTAC	1.08
GATGATTGTTCTCCCAGCTGATGAATTACGACGCTCGAGTAAACAAATTTTCCTAATCTTTCTGTTCAAGCGCCATCTAC	0.522
GATGATTGTTCTCCCAGCTGATGAATTGATTTCTTCGAGTAAACAAATTTTCCTAATCTTTCTGTTCAAGCGCCATCTAC	0.807
GATGATTGTTCTCCCAGCTGATGAATTGGGGCCGTCGAGTAAACAAATTTTCCTAATCTTTCTGTTCAAGCGCCATCTAC	0.369
GATGATTGTTCTCCCAGCTGATGAATTTGTTATCTCGAGTAAACAAATTTTCCTAATCTTTCTGTTCAAGCGCCATCTAC	7.03
GATGATTGTTCTCCCAGCTGATGAATTGTCGATATCGAGTAAACAAATTTTCCTAATCTTTCTGTTCAAGCGCCATCTAC	0.619
GATGATTGTTCTCCCAGCTGATGAATTCCAGAAGTCGAGTAAACAAATTTTCCTAATCTTTCTGTTCAAGCGCCATCTAC	0.172
GATGATTGTTCTCCCAGCTGATGAATTGTGGCTTTCGAGTAAACAAATTTTCCTAATCTTTCTGTTCAAGCGCCATCTAC	1.94
GATGATTGTTCTCCCAGCTGATGAATTTCGCGATTCGAGTAAACAAATTTTCCTAATCTTTCTGTTCAAGCGCCATCTAC	1.23
GATGATTGTTCTCCCAGCTGATGAATTGTTATTGTCGAGTAAACAAATTTTCCTAATCTTTCTGTTCAAGCGCCATCTAC	6.63
GATGATTGTTCTCCCAGCTGATGAATTGGTGTCCTCGAGTAAACAAATTTTCCTAATCTTTCTGTTCAAGCGCCATCTAC	1.3
GATGATTGTTCTCCCAGCTGATGAATTTAATGTCTCGAGTAAACAAATTTTCCTAATCTTTCTGTTCAAGCGCCATCTAC	3.07
GATGATTGTTCTCCCAGCTGATGAATTATGCTAGTCGAGTAAACAAATTTTCCTAATCTTTCTGTTCAAGCGCCATCTAC	2.02
GATGATTGTTCTCCCAGCTGATGAATTAGAGTATTCGAGTAAACAAATTTTCCTAATCTTTCTGTTCAAGCGCCATCTAC	1.12
GATGATTGTTCTCCCAGCTGATGAATTTGTCTTTTCGAGTAAACAAATTTTCCTAATCTTTCTGTTCAAGCGCCATCTAC	3.26
GATGATTGTTCTCCCAGCTGATGAATTCGACCTTTCGAGTAAACAAATTTTCCTAATCTTTCTGTTCAAGCGCCATCTAC	0.397

Sequence	binding signal (RPM ratio (pull-down/input))
GATGATTGTTCTCCCAGCTGATGAATTCGTTCCATCGAGTAAACAAATTTTCCTAATCTTTCTGTTCAAGCGCCATCTAC	0.366
GATGATTGTTCTCCCAGCTGATGAATTAGATACATCGAGTAAACAAATTTTCCTAATCTTTCTGTTCAAGCGCCATCTAC	0.882
GATGATTGTTCTCCCAGCTGATGAATTCCTAAAATCGAGTAAACAAATTTTCCTAATCTTTCTGTTCAAGCGCCATCTAC	0.198
GATGATTGTTCTCCCAGCTGATGAATTCCATACTTCGAGTAAACAAATTTTCCTAATCTTTCTGTTCAAGCGCCATCTAC	0.374
GATGATTGTTCTCCCAGCTGATGAATTGTCCTAGTCGAGTAAACAAATTTTCCTAATCTTTCTGTTCAAGCGCCATCTAC	0.264
GATGATTGTTCTCCCAGCTGATGAATTAACGGGGTCGAGTAAACAAATTTTCCTAATCTTTCTGTTCAAGCGCCATCTAC	0.225
GATGATTGTTCTCCCAGCTGATGAATTTCAGCTATCGAGTAAACAAATTTTCCTAATCTTTCTGTTCAAGCGCCATCTAC	0.567
GATGATTGTTCTCCCAGCTGATGAATTTAGGTTATCGAGTAAACAAATTTTCCTAATCTTTCTGTTCAAGCGCCATCTAC	1.01
GATGATTGTTCTCCCAGCTGATGAATTTATCTTATCGAGTAAACAAATTTTCCTAATCTTTCTGTTCAAGCGCCATCTAC	0.747
GATGATTGTTCTCCCAGCTGATGAATTGGTCATGTCGAGTAAACAAATTTTCCTAATCTTTCTGTTCAAGCGCCATCTAC	0.716
GATGATTGTTCTCCCAGCTGATGAATTTTGAGAGTCGAGTAAACAAATTTTCCTAATCTTTCTGTTCAAGCGCCATCTAC	0.465
GATGATTGTTCTCCCAGCTGATGAATTGTTGACGTCGAGTAAACAAATTTTCCTAATCTTTCTGTTCAAGCGCCATCTAC	4.46
GATGATTGTTCTCCCAGCTGATGAATTTAAACCATCGAGTAAACAAATTTTCCTAATCTTTCTGTTCAAGCGCCATCTAC	0.379
GATGATTGTTCTCCCAGCTGATGAATTAATGTTATCGAGTAAACAAATTTTCCTAATCTTTCTGTTCAAGCGCCATCTAC	1.82
GATGATTGTTCTCCCAGCTGATGAATTGGTGGCATCGAGTAAACAAATTTTCCTAATCTTTCTGTTCAAGCGCCATCTAC	1.28
GATGATTGTTCTCCCAGCTGATGAATTAATCCTCTCGAGTAAACAAATTTTCCTAATCTTTCTGTTCAAGCGCCATCTAC	0.285
GATGATTGTTCTCCCAGCTGATGAATTACAAAAATCGAGTAAACAAATTTTCCTAATCTTTCTGTTCAAGCGCCATCTAC	0.298
GATGATTGTTCTCCCAGCTGATGAATTGTATGCGTCGAGTAAACAAATTTTCCTAATCTTTCTGTTCAAGCGCCATCTAC	2.49
GATGATTGTTCTCCCAGCTGATGAATTAAACCAATCGAGTAAACAAATTTTCCTAATCTTTCTGTTCAAGCGCCATCTAC	0.347
GATGATTGTTCTCCCAGCTGATGAATTGCCCGCCTCGAGTAAACAAATTTTCCTAATCTTTCTGTTCAAGCGCCATCTAC	0.73
GATGATTGTTCTCCCAGCTGATGAATTATTATCCTCGAGTAAACAAATTTTCCTAATCTTTCTGTTCAAGCGCCATCTAC	0.758

Sequence	binding signal (RPM ratio (pull-down/input))
GATGATTGTTCTCCCAGCTGATGAATTCCTTCCTTCGAGTAAACAAATTTTCCTAATCTTTCTGTTCAAGCGCCATCTAC	0.209
GATGATTGTTCTCCCAGCTGATGAATTCTGGCTATCGAGTAAACAAATTTTCCTAATCTTTCTGTTCAAGCGCCATCTAC	0.529
GATGATTGTTCTCCCAGCTGATGAATTCCCGCGGTCGAGTAAACAAATTTTCCTAATCTTTCTGTTCAAGCGCCATCTAC	0.227
GATGATTGTTCTCCCAGCTGATGAATTGACTCATTCGAGTAAACAAATTTTCCTAATCTTTCTGTTCAAGCGCCATCTAC	0.462
GATGATTGTTCTCCCAGCTGATGAATTGGTATTTTCGAGTAAACAAATTTTCCTAATCTTTCTGTTCAAGCGCCATCTAC	1.36
GATGATTGTTCTCCCAGCTGATGAATTCTTAGGGTCGAGTAAACAAATTTTCCTAATCTTTCTGTTCAAGCGCCATCTAC	0.197
GATGATTGTTCTCCCAGCTGATGAATTGCGAATATCGAGTAAACAAATTTTCCTAATCTTTCTGTTCAAGCGCCATCTAC	0.927
GATGATTGTTCTCCCAGCTGATGAATTACAAATCTCGAGTAAACAAATTTTCCTAATCTTTCTGTTCAAGCGCCATCTAC	0.509
GATGATTGTTCTCCCAGCTGATGAATTCGGGTAGTCGAGTAAACAAATTTTCCTAATCTTTCTGTTCAAGCGCCATCTAC	0.543
GATGATTGTTCTCCCAGCTGATGAATTCATTAACTCGAGTAAACAAATTTTCCTAATCTTTCTGTTCAAGCGCCATCTAC	0.317
GATGATTGTTCTCCCAGCTGATGAATTAAGCCCTTCGAGTAAACAAATTTTCCTAATCTTTCTGTTCAAGCGCCATCTAC	0.868
GATGATTGTTCTCCCAGCTGATGAATTAAGTCGATCGAGTAAACAAATTTTCCTAATCTTTCTGTTCAAGCGCCATCTAC	0.325
GATGATTGTTCTCCCAGCTGATGAATTCTCAAAGTCGAGTAAACAAATTTTCCTAATCTTTCTGTTCAAGCGCCATCTAC	0.191
GATGATTGTTCTCCCAGCTGATGAATTTACCACCTCGAGTAAACAAATTTTCCTAATCTTTCTGTTCAAGCGCCATCTAC	0.616
GATGATTGTTCTCCCAGCTGATGAATTCCTGCAATCGAGTAAACAAATTTTCCTAATCTTTCTGTTCAAGCGCCATCTAC	2.22
GATGATTGTTCTCCCAGCTGATGAATTTCGGTGTTCGAGTAAACAAATTTTCCTAATCTTTCTGTTCAAGCGCCATCTAC	0.955
GATGATTGTTCTCCCAGCTGATGAATTTGCTGCTTCGAGTAAACAAATTTTCCTAATCTTTCTGTTCAAGCGCCATCTAC	3.05
GATGATTGTTCTCCCAGCTGATGAATTGAGCGCGTCGAGTAAACAAATTTTCCTAATCTTTCTGTTCAAGCGCCATCTAC	1.08
GATGATTGTTCTCCCAGCTGATGAATTGCAAATCTCGAGTAAACAAATTTTCCTAATCTTTCTGTTCAAGCGCCATCTAC	0.778
GATGATTGTTCTCCCAGCTGATGAATTGCGAGAATCGAGTAAACAAATTTTCCTAATCTTTCTGTTCAAGCGCCATCTAC	0.446
GATGATTGTTCTCCCAGCTGATGAATTCAAGCGATCGAGTAAACAAATTTTCCTAATCTTTCTGTTCAAGCGCCATCTAC	0.414
